# Assay results: the supplement of paper PMC11417369
# ± gives the standard deviation of the averaged measurements. The list shows a part of the results.
# Test system: PfAP2-LT AP2 domain (GST-tagged)
# Assay: gcPBM binding intensity (ln(normalized median fluorescence intensity)); higher = stronger DNA binding
# How it was run: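 Binding of GST-tagged P. falciparum DNA-binding domains, expressed in E. coli and used at about 25 μg on average, was carried out for 1 h in 1× PBS containing 1% milk, 0.2 mg/ml BSA, 0.5% salmon testes DNA and 0.03% Triton X-100. The target was an Agilent 4 × 180k array of primer-extended double-stranded 36-bp intergenic genomic probes plus negative controls, read with Alexa488 anti-GST antibody at 488 nm. Binding intensity is the highest Masliner-normalised natural-log median intensity across replicate spots of either probe orientation.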
row,Sequence,gcPBM binding intensity (ln)
1,ATGATTTCACAAGACACACACATACAAATTTATATA [CACACA_site3909],9.28 ± 0.42
2,CAGTATTACATGAGGACACACACAAAAAAAATATAT [CACACA_site8156],9.38 ± 0.49
3,TTAATATATTATCTGGTGCATAAACACGTTATACCT,8.81 ± 0.53
4,ATAGGTTCCCAAAATGCACACCAATGAAATTATTTA [CACACA_site8081],8.72 ± 0.37
5,CAAGCTTTTTCCTTTACACACATTAGTTATTTATAT [CACACA_site6781],9.16 ± 0.33
6,ATATTATTTTAAAGTACACACATATATTAAGATATA [CACACA_site5306],8.71 ± 0.4
7,TTTAATGTTACTCCTTGTACACAAAATAGTGTTATA [XGTACX_site8416],8.78 ± 0.45
8,CTGTAAAAAATATAAACACACATAGAGATATATAAA [CACACA_site6292],8.96 ± 0.45
9,TAAGTATATTTTATATGTACTTATATATTTAATTTT [XGTACX_site4615],8.44 ± 0.39
10,TATTAATATGGTAATACACACTAATATACTTTTGTT [CACACA_site6860],8.89 ± 0.5
11,ATATATATATATATATGTACGTATTCATAAACAACA [XGTACX_site4282],9.47 ± 0.085
12,TATTTGTATATTCATTCCTGTATTCCCTTTTTTGTA [CACACA_negctrl_site1236],8.95 ± 0.49
13,AAAAAAAAAAAAAATACACACAAATAATAAAAATAA [CACACA_site1431],9.14 ± 0.57
14,TGTACGTTTTTTAACACACACACAAAAAAAAAAAAA [CACACA_site6006],9.04 ± 0.43
15,ATATATATATATGTATGTACATAATATTTTTTTTAT [XGTACX_site5551],9.15 ± 0.11
16,ATACCATATAATTATGTGAGAAAATATAATATTCAT [CACACA_negctrl_site310],8.74 ± 0.5
17,ATTTTCTTAAATAAATGTACATGGCATTAAAAGTAA [XGTACX_site5119],8.49 ± 0.41
18,AAATAAAATCATGAATGTACACAAAAATTATTGCAA [XGTACX_site5691],8.87 ± 0.54
19,TTTGAAGGAAGGGGGGGAGGGGCCATAACAAAGGAA [GTGCAC_negctrl_site408],9.82 ± 0.16
20,TTAAATATCCATATTTCACACATTTCGATATATATA [CACACA_site4208],8.7 ± 0.4
21,TATTTTAGAGAAAAAAATAAATTACAAAATGTTAGG [CACACA_negctrl_site1645],8.23 ± 0.54
22,ACTGTACTATAAAATACACACATATAAATATAAATA [CACACA_site3009],9.04 ± 0.39

row,Sequence,gcPBM binding intensity (ln)
1,CCTAAATAAATGGACACACACATATTTATATTTATA [CACACA_site6789],9.25 ± 0.42
2,ATAATGTCATAATTATATCCTTTGGCATAAAATAAA [XGTACX_negctrl_site574],8.47 ± 0.49
3,TATAATATTATATAATGTACGCATTTATTATTTAAA [XGTACX_site8326],8.42 ± 0.38
4,GAATGTAAATATTAAAGTACACAGAATATATCTTCA [XGTACX_site8149],8.77 ± 0.47
5,TTTAACAACTATTTCTGTACACATTTTTATATAATT [XGTACX_site4917],8.85 ± 0.53
6,TGAACCCACAAATCACGTACATATATATACACGTGT [XGTACX_site7739],9.18 ± 0.33
7,ATATACATTTTAAATTTTAATGTAACCCATGGGAGA [CACACA_negctrl_site588],8.46 ± 0.33
8,ATAAATAACTTTTAAATACACACGTAAAATATATTG [CACACA_site3302],8.78 ± 0.36
9,ATTTATATTATGAGGAGTACAATACTTATAGATGTA [XGTACX_site7510],8.61 ± 0.47
10,GATAGACACGTGCACACATGCAATACTTTATTCAGT [TGCATGCA_site778],9.46 ± 0.36
11,AAAAAAGATATATAAACACACATATTTATATACACA [CACACA_site6866],8.87 ± 0.47
12,TGTACGAGTCGTAGAGTGCAGTCTGGAGAAACGTAC [GTGCAC_site9682],9.07 ± 0.49
13,TATATACGTAATAGTAGTACTTTAAAATGCGGAAAT [XGTACX_site4597],9.02 ± 0.53
14,GAATTATATACTTATTGTACAAAAAAAAAAAAAAAA [XGTACX_site3193],8.36 ± 0.4
15,TATTCCCCCCAACACACACACACACCGACATACCAC [CACACA_site8723],10.8 ± 0.26
16,ATAAACATGTATATATTAAAAAAAAAAAAAAAAAAT [CACACA_negctrl_site92],8.77 ± 0.49
17,TTATTTATATATTGCCCACACACATGTGATTATTTA [CACACA_site1715],9.34 ± 0.5
18,AATATTTTTTGTTTTACACACATATATAAATATATA [CACACA_site3602],8.91 ± 0.35
19,AAGAAAAATTCTTCACGTACAAATAATTATATATAT [XGTACX_site7217],8.68 ± 0.37
20,TATAATATATATGTATGTACGTATGTATGATTTTGT [XGTACX_site1164],8.89 ± 0.43
21,TTTTTAATTTTTTTCACACATATATAAATACAAATA [CACACA_site5530],8.38 ± 0.49
22,AAATTACAAATAAAATGTACTCATGTTTTTATTATA [XGTACX_site7223],8.5 ± 0.45

row,Sequence,gcPBM binding intensity (ln)
1,TTTATAATTTATAGGCGGACAGGAAAATTTTATAAA [XGTACX_site6955],8.33 ± 0.4
2,TTTTTTAAATATATATGTACATATATCTATATATAT [XGTACX_site3461],8.95 ± 0.52
3,GCAAGGTCCACACTGGTGCATTAAAAATAAAATATA [GTGCAC_site9956],8.66 ± 0.52
4,TGAACAGGTCATAATTTACACACTATATATTTTATT [CACACA_site8123],8.91 ± 0.5
5,TTTTTCTTTTTTTGTTGTACATTTTGTAATATTTAC [XGTACX_site4102],8.92 ± 0.58
6,TACAGGAATATTTTTACACACTAAAAGTTATAAACT [CACACA_site6876],8.71 ± 0.44
7,TTTCTTATATTATATAAATATATAGATGTTAATGGT [CACACA_negctrl_site706],8.42 ± 0.47
8,AATATAATATAATGCACACATAAAAAAAAAAAAAAA [CACACA_site304],8.96 ± 0.46
9,TATTACAAAAATGTGTTATTATATAAACGTATAGAG [XGTACX_negctrl_site529],8.64 ± 0.39
10,GTAAAATAAATAATATAAATAAAATGAAATGAAACA [TGCATGCA_negctrl_site519],8.86 ± 0.51
11,ATTTTTTTTTTTTTTTTTAATTTATGTTGTTATTTT [CACACA_negctrl_site944],8.8 ± 0.51
12,AAGTTTAAAGGAATTACACAAACAAGCAAATATATA [CACACA_negctrl_site857],8.8 ± 0.52
13,GAACCGTTTTTATGTAGTACATATGTATATATATAT [XGTACX_site1577],9.12 ± 0.3
14,ATATATATATATATAGTGCAAATAAAAAATAGACAA [GTGCAC_site9796],9.21 ± 0.43
15,TAATATATTAAAAGAAGTACATTTCTGATTTAATAG [XGTACX_site6403],8.32 ± 0.49
16,ATTATATAATAATAAAGTACTAATATTTTTAAAAGA [XGTACX_site235],8.49 ± 0.51
17,AGTAAATATATTATATGTACGTATCATAAAATATAT [XGTACX_site1567],8.79 ± 0.45
18,TTAATATTAAAATATAAACACACAAAATTCAATTAT [CACACA_site9262],8.71 ± 0.43
19,ACAGTATAAAAATAAGCACACACACTAATATATATT [CACACA_site8212],9.79 ± 0.35
20,TATATATTAATATATGCATGTTAATATATTATGAAA [TGCATGCA_site61],8.48 ± 0.35
21,TAAAATATATTTTTCTGTACACAAAAATATATTAAA [XGTACX_site2813],8.3 ± 0.41
22,TGATTATAGACACGCGCACACACAACAAAAAAAAAA [CACACA_site9179],9.43 ± 0.43

row,Sequence,gcPBM binding intensity (ln)
1,TAAGTTTGTGCAAGTGGTACATATATATAAATTTAT [XGTACX_site5944],8.73 ± 0.45
2,TTAGCAACTATTACTACACACATTTGTATTTAATTT [CACACA_site4961],9.09 ± 0.45
3,TTTACATAAACTGGTAGTACATAATATGGCTTAAAA [XGTACX_site5002],8.59 ± 0.31
4,TGGATTTTTTGATTTTTGTTTTTCTTCTTTCCCCCC [CACACA_negctrl_site1471],8.64 ± 0.28
5,TAATAATAATTAAAATGAGATAAATAAATATATATA [TGCATGCA_negctrl_site322],8.44 ± 0.39
6,TCTTTATATCATCTTTCTAAATATATATATATATAA [CACACA_negctrl_site77],8.54 ± 0.4
7,CTATTAATGTACTCTACACACATATAAGAGGACATT [CACACA_site471],8.92 ± 0.37
8,TTATATATTTATAAATGTACGTATAAGAATTTAATT [XGTACX_site8541],8.44 ± 0.35
9,AATGTAAAACGAAATGCACACTATGGAAAATATAAA [CACACA_site4559],9.21 ± 0.43
10,AAAAATAAAAATGAGTGTACTTTAAGCCCTACACTT [XGTACX_site828],8.78 ± 0.46
11,TATAATATTATAGTTTGTACGAAAATAATATATTTA [XGTACX_site8673],8.38 ± 0.38
12,TTTTACTATGATATTTATATATCTATATATGTATAT [XGTACX_negctrl_site499],8.77 ± 0.47
13,AACCAAAATTTTTGTCGTACAAAAGAGCAAATGTAG [XGTACX_site6472],8.9 ± 0.47
14,ACGATGTTCATCACTACACACACAAAGAAATATATA [CACACA_site8859],9.26 ± 0.37
15,TATATATATATATATATATATATTAATATATATTAC [XGTACX_negctrl_site103],9.43 ± 0.26
16,AAATTAATAAATATTTTTATAAATTATAATATTAAT [GTGCAC_negctrl_site533],8.04 ± 0.39
17,CAAAATTTATATAATAGTACACATGATCTTTTTTCT [XGTACX_site8956],8.62 ± 0.5
18,TATATATATATATAATGTACGAATAGAAAAAAAAAA [XGTACX_site7231],8.79 ± 0.44
19,GATACAAAATGGGGAACACACACATATATATATATA [CACACA_site9278],10.1 ± 0.22
20,AAAAGTGTATGTAGGTGTACTTTTTATTTCTTCTTT [XGTACX_site8819],8.91 ± 0.38
21,TAAAGGCAAACAAACACACACACATATATACCTATA [CACACA_site7078],9.78 ± 0.18
